# Laboratory results as given in PubChem BioAssay AID686979 (National Center for Advancing Translational Sciences (NCATS), 2013).
# Several values for one entry are separate records, joined by “and”; a condition that tells them apart may be missing. Equal values may be shown once. Among all 420,000 compounds or so, about 50,000 (12%) were called active. Inconclusive means that the source gave no clear call. Such entries were picked first, then a sample of the others. Calls follow the shape of the dose curve; as a rule, active = well fitted inhibition curve with a large enough effect; inconclusive = small, poorly fitted or top-dose-only effect; inactive = flat fitted curve, though single readings scatter. Potencies beside an inconclusive call are fits to weak or partial responses and may not hold up.
# Test: qHTS for Inhibitors of human tyrosyl-DNA phosphodiesterase 1 (TDP1): qHTS in cells in presence of CPT; also: nearly all actives have a fitted effect of over 55% in size
# Conditions: chicken DT40 Tdp1-/-;hTDP1 cells + 20 nM CPT, ATP luminescence, 48 h; activity change, negative = growth inhibition: at 46.2 µM (top of the series)
# Summary of the method: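 Chicken DT40 Tdp1-/- cells complemented with human TDP1, 400 cells/well, exposed to compounds plus 20 nM camptothecin for at least 48 h at 37 C; viability read as ATP content by CellTiter-Glo luminescence.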
# % is scaled to controls: 0 for no effect and ±100 for the full control effect; potency is read from the fitted curve at half-maximal effect; tags tell the direction and shape of the fitted curve.
SMILES,"activity change, negative = growth inhibition",Potency
CCC(=O)Oc1ccc2ccccc2c1CNC(=O)c1ccccc1,inconclusive: -32.2% [inhibitor],–
CCOC(=O)Cn1c(=O)oc2cc(S(=O)(=O)N3CCN(c4ccc(C(C)=O)cc4)CC3)ccc21,inactive: -19.2%,–
CCOc1ccc(S(=O)(=O)c2cn(Cc3cc(C)ccc3C)c3ccc(OCC)cc3c2=O)cc1,–,"inconclusive: 6.51 µM [inhibitor, partial curve]"
O=C(NC(=O)c1ccccc1O)c1ccc(C(F)(F)F)cc1,–,active: 11.6 µM
Cc1ccc(S(=O)(=O)N(C)C)cc1NC(=O)COC(=O)/C=C/c1cnc2ccccc2n1,inactive: -7.41%,–
CCCCCCCCCn1c2c(c(=N)c3c1CCC3)CCC2,–,active: 0.058 µM
CCN(CC)CCn1c2c(c(SCC(=O)Nc3nc4ccccc4s3)nc1=O)CCCC2,–,"inconclusive: 29.1 µM [inhibitor, single point]"
CC(=O)c1ccc(OCC(=O)NCCC2=CCCCC2)cc1,–,"inconclusive: 29.1 µM [inhibitor, single point]"
CC1CCC2CCCCC2N1C(=O)c1cc([N+](=O)[O-])cc([N+](=O)[O-])c1 (stereo not given),–,"inconclusive: 13 µM [inhibitor, single point]"
O=C(c1cccnc1)N1CCN(c2ccc([N+](=O)[O-])cc2Cl)CC1,–,"inconclusive: 25.9 µM [inhibitor, partial curve]"
CC(=O)N(/N=C1\Sc2ccccc2C1=O)c1ccccc1,inconclusive: -32% [inhibitor],–
COc1cccc(-c2nc(CS(=O)(=O)CC(=O)Nc3cccc(C)c3C)c(C)o2)c1,–,"inconclusive: 29.1 µM [inhibitor, single point]"
COc1ccc(NC(=O)Cn2nc(C)c3nn(-c4ccc(Cl)cc4)c(C)c3c2=O)cc1,–,"inconclusive: 29.1 µM [inhibitor, single point]"
CC[C@H]1C=C[C@@H](C(C(=O)OC)C(=O)OC)CN1C(C)=O,–,"inconclusive: 23.1 µM [inhibitor, single point]"
CC(C)c1ccc(OCC(=O)NC2=NCCS2)cc1,inactive: -25%,–
COc1cccc(Nc2nc3cc(Cl)c(Cl)cc3nc2-n2nc(C)cc2C)c1,inactive: -14.8%,–
COc1ccc(NC(=O)OC(C)C)cc1,–,"inconclusive: 14.6 µM [inhibitor, partial curve]"
O=C(NCCN1CCOCC1)C1CCCN(S(=O)(=O)c2ccc(F)cc2)C1 (stereo not given),inactive: -11.7%,–
Cn1c(N)c(C(=O)c2ccc(Cl)c(S(=O)(=O)N3CCCCCC3)c2)c(=O)n(C)c1=O,–,"inconclusive: 20.6 µM [inhibitor, single point]"
C=CCN(CC=C)C(=S)NC(=O)/C=C/c1ccccc1,–,"inconclusive: 29.1 µM [inhibitor, single point]"
CCCn1c(C(C)NC(C)=O)nc2ccccc21 (stereo not given),–,"inconclusive: 16.4 µM [inhibitor, single point]"
O=C(NC(=S)Nc1ccccc1N1CCOCC1)c1ccccc1F,–,"inconclusive: 29.1 µM [inhibitor, single point]"
CC1CCN(c2oc(/C=C/c3ccc(F)cc3)nc2C#N)CC1,–,"inconclusive: 29.1 µM [inhibitor, single point]"
CCCN1Cc2cccc(C(=O)Nc3ccc(S(=O)(=O)N4CCCCCC4)cc3)c2C1=O,–,"inconclusive: 23.1 µM [inhibitor, single point]"

SMILES,"activity change, negative = growth inhibition",Potency
O=c1c(OCc2ccccc2)cccn1Cc1ccccc1,inactive: -0.81%,–
CC(C)C(c1nnnn1Cc1ccccc1)N(CCCO)Cc1cc2cc3c(cc2[nH]c1=O)OCO3 (stereo not given),–,"inconclusive: 29.1 µM [inhibitor, single point]"
CCCOc1ccc(C(=O)Nc2nc(C)c(Cc3ccc4c(c3)OCO4)s2)cc1,–,"inconclusive: 16.4 µM [inhibitor, partial curve, poor fit]"
COc1ccccc1CNC(=O)c1cnc(N2CCCC2)nc1C,–,"inconclusive: 11.6 µM [inhibitor, partial curve]"
CCn1c(=O)c([N+](=O)[O-])c(N2CCOCC2)c2ccccc21,inactive: -29.8%,–
CC1Cc2ccccc2N1Cc1cc(=O)c(OCC(=O)Nc2ccccc2)co1 (stereo not given),–,"inconclusive: 25.9 µM [inhibitor, single point]"
CCOc1ccc(NC(=O)c2cc(S(=O)(=O)N3CCOCC3)ccc2F)cc1,inactive: -5.45%,–
CCCOC(=O)c1ccc(Cn2nnc3sc4c(c3c2=O)CCC(C)C4)cc1 (stereo not given),–,"inconclusive: 16.4 µM [inhibitor, single point]"
OC1(c2cccc(C(F)(F)F)c2)CCN(c2ncnc3c2[nH]c2ccccc23)CC1,–,active: 23.1 µM
COc1ccccc1NC(=O)C1=C(C)Nc2nc(SCc3ccccc3)nn2C1c1cccnc1 (stereo not given),–,active: 20.6 µM
Cc1ccc(/C(N)=N/OC(=O)N2c3ccccc3Sc3ccccc32)cc1,–,"inconclusive: 25.9 µM [inhibitor, single point]"
Cc1ccc(-c2csc(NC(=O)CSc3nc4ccccc4c(=O)n3CCCN(C)C)n2)cc1,–,active: 10.3 µM
CS(=O)(=O)Nc1ccc(C(=O)NCCSCc2c(F)cccc2Cl)cc1,inactive: 1.73%,–
CCn1ncc(Cl)c1C(=O)Nc1cc(Cl)ccc1Cl,–,"inconclusive: 18.4 µM [inhibitor, single point]"
Cc1ccc(-c2cn(-c3ccccc3F)c(=S)[nH]2)cc1,–,"inconclusive: 23.1 µM [inhibitor, partial curve]"
CCOc1ccc(-c2nc(Cn3c(=O)cc(C)c4c(C)nn(-c5ccc(C)cc5)c43)c(C)o2)cc1,inactive: -17.3%,–
COc1ccc2nc(/C(C#N)=C\c3ccc(Oc4ccc([N+](=O)[O-])cn4)cc3)[nH]c2c1,–,"inconclusive: 8.2 µM [inhibitor, partial curve]"
O=C(CSc1nccc(=O)[nH]1)N1CCOCC1,inactive: 14.4%,–
CCc1c(C)sc2c1CCN(C(=O)Nc1ccc(F)c(Cl)c1)C2c1ccc(F)cc1 (stereo not given),–,"inconclusive: 25.9 µM [inhibitor, single point]"
CCOc1ccc(NC(=O)c2cc3c(=O)n(Cc4cccs4)ccc3nc2C)cc1,–,"inconclusive: 18.4 µM [inhibitor, single point]"
C#CCOCCOCCOCCNc1nc(N2CCOCC2)nc(N2CCN(C(=O)[C@H](CO)n3cc([C@@H](N)C(C)C)nn3)CC2)n1,inactive: 0.0698%,–
O=C(Nc1cccc(Br)c1)c1ccc(Cl)c(S(=O)(=O)N2CCOCC2)c1,–,active: 14.6 µM
Cc1nc2sccn2c1CN1CCOc2ccc(CN3C[C@@H](C)O[C@@H](C)C3)cc2C1,–,active: 10.3 µM
CCN1C(=O)c2cccc3c(Cl)ccc(c23)C1=O,inactive: 5.83%,–

SMILES,"activity change, negative = growth inhibition",Potency
COC(=O)C1=C(C)N(Cc2ccccc2)C(=NCc2cc(OC)c(OC)c(OC)c2)N[C@H]1c1cccc(F)c1,–,active: 11.6 µM
COc1ccc(C)cc1NC(=O)COC(=O)c1ccccc1SCC(=O)N1CCCC1,–,"inconclusive: 14.6 µM [inhibitor, partial curve, poor fit]"
C[C@H](CO)N1C[C@H](C)[C@H](CN(C)C(=O)c2ccccc2)OCc2ccccc2-c2c(n(C)c3ccccc23)C1=O,–,"inconclusive: 29.1 µM [inhibitor, single point]"
CCCCCCn1c(CN2CCCCC2CC)nc2c1c(=O)n(C)c(=O)n2C (stereo not given),–,active: 23.1 µM
CC(C)(C)NC(=O)CCc1nnc(Cc2c[nH]c3ccccc23)o1,inconclusive: -35.3% [inhibitor],–
Cc1ccc(S(=O)(=O)N2[C@@H](Cc3ccccc3)CO[C@H]2CC(=O)c2cccc3ccccc23)cc1,–,"inconclusive: 29.1 µM [inhibitor, single point]"
O=C(c1ccccc1)N1CCC(=O)N1c1ccccc1,inactive: 17.9%,–
CCC(C)c1ccc(NC(=O)c2c([N+](=O)[O-])cnn2CC)cc1 (stereo not given),–,"inconclusive: 23.1 µM [inhibitor, single point]"
O=C(CC(=O)c1ccccc1)CC(O)(C=Cc1ccccc1)c1ccccc1 (stereo not given),–,active: 20.6 µM
O=C(C1CCC(Cn2c(=O)c3sccc3n(Cc3ccccc3F)c2=O)CC1)N1CCCCC1 (stereo not given),–,active: 23.1 µM
COc1ccccc1N(CC(=O)NCCSCc1cccc(Cl)c1)S(C)(=O)=O,–,"inactive and inconclusive: 29.1 µM [inhibitor, single point]"
O=c1[nH]c(SCc2cccc(F)c2)nc2ccccc12,–,"inconclusive: 29.1 µM [inhibitor, single point]"
NC(c1csc(Nc2nncc3ccccc23)n1)c1ccccc1Cl (stereo not given),–,active: 29.1 µM
Cc1ccc(-c2nnc3sc(CCc4ccccc4)nn23)cc1,–,"inconclusive: 29.1 µM [inhibitor, single point]"
Cc1cccc(C(=O)NNC(=O)CSc2nnc(C(C)C)n2C)c1,inactive: -15.2%,–
CCOC(=O)C1=CCN(S(=O)(=O)c2ccccc2C)C1c1ccc(Cl)c(Cl)c1 (stereo not given),–,"inconclusive: 16.4 µM [inhibitor, single point]"
COc1cc(/C=C/c2[nH]c(=O)[nH]c(=O)c2[N+](=O)[O-])cc([N+](=O)[O-])c1O,inactive: 1.51%,–
CC(OC(=O)c1ccccc1NS(=O)(=O)c1cccc(C(F)(F)F)c1)C(=O)N(C)Cc1ccccc1 (stereo not given),–,"inconclusive: 29.1 µM [inhibitor, single point]"
O=C(Cn1nc(C(=O)O)c2ccccc2c1=O)NCc1ccco1,–,active: 25.9 µM
S=C(NCc1ccccc1)Nc1ccncc1,–,active: 10.3 µM
COc1cccc(CN(C)S(=O)(=O)c2ccc3c(c2)OCCO3)c1,inconclusive: -30.6% [inhibitor],–
CC(C)Sc1nc2sc3c(c2c2nnc(SCC(=O)NCc4ccco4)n12)CCCC3,–,"inconclusive: 18.4 µM [inhibitor, single point]"
